The source gives no read counts; variants with many changes may rest on few reads.

For 83 variants, self-cleavage results are on record in the RNAGym collection of RNA variant scans (doi:10.7554/elife.90254).

To fix the notation:
B1: LINE1-full (parent)
chain: UACGUAGGUGGUUUUCCCCUGAUAGUGCUAAGGGGGCCUGGAAGUUUGGACUGGGCAGAGCUCAACACAGCGUGGCAAAGUGGCUGUGGCUAGACUGCCUCUCUGGAUUCCUCGUCACUCAGCAGGGCAUCUCUGAGAGAAAUGCC

In this series the parent is B1. The experiment in a line: self-cleavage, relative activity (ratio to wild type); higher = more cleavage; in vitro, sequencing; the parent is a self-cleaving ribozyme.
Consider U9C U109A U130C, for which the self-cleavage is 1.29.

With G11A U87C U115A A129U A142G, the self-cleavage is 0.28.

U12C A24G U104C U134C: the self-cleavage amounted to 2.87. Take U9G A31G U91C C113U A117U: the self-cleavage was 0.64.

Take U9G A43G G97A: the self-cleavage came to 0.18. For the variant G10A U29C A129U, the self-cleavage turned out to be 1.37.

As to U12A U29C U47C, the self-cleavage is 1.13.

G11A A43G A57G U115C A141G: the self-cleavage is 0.77. Consider G11A U100C A138G, for which the self-cleavage was 1.23. Consider U12C A42G A43U U91C, for which the self-cleavage was determined as 1.6. In the case of U12C A24G A107C it was 0.84. Regarding U12C A22G A138U, the self-cleavage worked out at 0.84. In the case of G11A A77U U87C it was 0.06; in that of U12C A50G A78G, 0.81; in that of U9G U45C A50G A77U, 0.33. Turning to G10A U20C G89A, the self-cleavage stood at 0.06.

Consider U12A A65U A94G, for which the self-cleavage stood at 0.14. As for U12A A43C U85A A121C U130C U143A, the figure is 0.27; as for G11A A79G A92G A129U A138G, 0. As for G11A U20A C38U A121U, the self-cleavage worked out at 0.95.

For U12A A31U U96C A140G, the self-cleavage stood at 0.25. For the variant U12A A22G A67C A124G A136G, the self-cleavage is 0. As for U12C A31G A121U, the figure is 1.34; as for U12A U39C U87C U132C, 0.28. U9C U109A U115A: the self-cleavage turned out to be 1.4. As to U12C A30G A69U, the self-cleavage was determined as 0.43. Consider G10A U20A U46G, for which the self-cleavage came to 1.07.

Turning to G11A U96A U104C A129U A141G, the self-cleavage turned out to be 0.09. In the case of G11A C37U A64C it was 0.29; in that of U12C A42G U46A U91C U104A U115C A140G, 0.71; in that of U9G A67G A107U U115C, 1.97. Consider U12A A50U U134C, for which the self-cleavage turned out to be 1.06. In the case of G10U U47C A59G A142G, the self-cleavage was 0.09. On to U12C A30G U91C U104A, for which the self-cleavage was 0.

Take U12A A42G U91C U102C: the self-cleavage came out at 0. For the variant U12A U14C A22G A67G, the self-cleavage was 0.21. With U12C A43U U45C U115A, the self-cleavage is 1.2. In the case of G10C U62A U73G U112C it was 0.04; in that of U12A U47C A92G A124U, 0; in that of U12A U20C U108C U119G C120U A124G A138G, 0.77. As for U12A A42G C51A, the figure is 1.12; as for U12A A42G A136G U143C, 0.91; as for U9C U119C A140G, 1.05. In the case of G10A U20G A42G G74A U115C it was 1.65; in that of U12A A79G C128A, 0.25; in that of U9G C37G G106A, 1.34. With U9C U112C C128U, the self-cleavage was 1.66. Take G11U U14C A77G: the self-cleavage is 1.58.

U12C A31G G36A G105A: the self-cleavage came to 1.33.

On to G11A A79G A107C U109C G127A A129G, for which the self-cleavage is 0. As to G10A C68U A107G, the self-cleavage worked out at 0.23.

With U12A U104A U119C C120U A138G, the self-cleavage was determined as 1.5. Turning to U12C A24U C37U, the self-cleavage was 1.24. Consider U12A A31G U91C U100A U132C A142G, for which the self-cleavage was found to be 1.31. For U12C A30U G35A, the self-cleavage was 0.85. As for U12A C120U A124G A129G U143C, the self-cleavage amounted to 0.92. Take U9C U112C A142G: the self-cleavage stood at 1.67. Consider G10U U26C A59G U62C G144U, for which the self-cleavage is 0.36. As for U12A U14C U15C A67G U108C, the figure is 0; as for U12A A77G U112A U132C, 2.01. In the case of G10A A43G A50C it was 0.87; in that of U12A A59G U104C, 0.43. In the case of U12A U100C G106A it was 1.27; in that of G10U U29C A43U, 2.13; in that of G11A G58U A140G, 0.03. Regarding G10A U112C C123U, the self-cleavage is 0.94. Take G10A A24G A59U U119C A142U: the self-cleavage was determined as 1.33. Consider G10A U15C A57G, for which the self-cleavage amounted to 1.58. Turning to U12A A57U U73C U119A, the self-cleavage came to 0.5. As for G10U U52C A94U, the figure is 0.43; as for U12C A22G A92U A117U, 0.6. For G11C C95G A129G U143A, the self-cleavage stood at 0.03. In the case of U12A U14C U26A G44A U100C it was 1.51; in that of G10A C63U U81C, 0.32. As to U9G U12G U96C U119C, the self-cleavage was 0.29. For U9G U12G U15C, the self-cleavage was determined as 0.35.

As to U12A G36A G75A U102C A138G, the self-cleavage stood at 0.14.

Regarding U9C U104C U115C, the self-cleavage was 1.15.

On to G10A U20C G34C U52C, for which the self-cleavage came out at 0.89.

On to U12A U85A U109A, for which the self-cleavage came out at 0.02.

As for U12C A42G U112C A140U, the self-cleavage is 2.18. In the case of G10U G35U C37G it was 0.81.

For the variant U12C A30C A65U U102A, the self-cleavage came out at 0.87.
